From PubChem BioAssay AID624418 (National Center for Advancing Translational Sciences (NCATS), 2012)
Out of some 410,000 compounds screened, about 530 (0.13%) were called active. The inconclusive results got no clear call from the source; some entries with a clear call stand among them for comparison. The call rests on the fitted dose curve; in most records, active means well fitted inhibition curve with a large enough effect; inconclusive means small, poorly fitted or top-dose-only effect, or another doubt; inactive means no such curve, though single readings can be large or run the other way. Potencies of inconclusive entries are doubtful fits and often do not repeat.

experiment: qHTS of GLP-1 Receptor Inverse Agonists: Cytotox Screen; details: HEK293 cAMP-luciferase reporter cells, luminescence, 24 h; activity change, negative = inhibition: at 38.3 µM (top of the series) unless noted
Outline: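 Cells in DMEM/10% Nu serum/1% pen-strep, 1536-well format. Pre-incubated 12 h, dosed with 23 nL compound, incubated a further 24 h. Luciferase detection, 12 min at room temp, luminescence.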
On the % scale 0 is the no-effect control and ±100 the full control effect; potency means the concentration at half of the fitted maximal effect.

Structure (SMILES) | Potency | activity change, negative = inhibition
Cc1ccc2nc3c(c(Nc4ccc(O)cc4)c2c1)CCC3 | inconclusive: 15.8 µM [inhibitor, partial curve, poor fit] | –
Cc1ccnc(NC(=O)CCC(=O)N(CC(=O)NCc2ccccc2)Cc2ccccc2)c1 | inconclusive: 4.47 µM [inhibitor, partial curve] | –
O=C1NC(=S)SC1=Cc1ccccc1Cl | inconclusive: 3.98 µM [inhibitor, partial curve, poor fit] | –
CCN(CC)CCNCc1cc(Cl)ccc1OCc1ccccc1F | inconclusive: 11.2 µM [inhibitor, single point] | –
Cc1ccc(C(=O)C[n+]2cc(-c3ccc(C)cc3)n3c2CCCCC3)cc1 | inconclusive: 28.2 µM [inhibitor, single point] | –
CCOC(=O)C1=C(C)N(C)C(=S)NC1c1ccc(Cl)cc1 (stereo not drawn) | inconclusive: 15.8 µM [inhibitor, single point] | –
Cc1ccc(S(=O)(=O)c2nnn3c2nc(NCc2ccccc2Cl)c2sccc23)cc1 | inconclusive: 8.91 µM [inhibitor, partial curve, poor fit] | –
COc1ccc(NC(=O)CSc2ncnc3[nH]ncc23)cc1 | inconclusive: 28.2 µM [inhibitor, single point] | –
CN1C(=S)SC(C)(C)C1(C)NO (stereo not drawn) | inconclusive: 10 µM [inhibitor, partial curve, poor fit] | –
CN(C)CCNc1c2c(nc3ccccc13)CCC2 | inconclusive: 15.8 µM [inhibitor, partial curve, poor fit] | –
CN(C)CCCNc1ncnc2sc(-c3ccccc3)cc12 | inconclusive: 28.2 µM [inhibitor, single point] | –
C#CCSc1nnc(CSc2nc3ccccc3s2)n1-c1ccccc1 | inconclusive: 28.2 µM [inhibitor, single point] | –
Cc1cc(-c2ccco2)n(CC(=O)NCc2ccco2)n1 | inconclusive: 28.2 µM [inhibitor, single point] | –
Cc1cccc2cc3c(nc12)SC(=NCC1CCCO1)N(Cc1ccco1)C3 (stereo not drawn) | inconclusive: 8.91 µM [inhibitor, single point] | –
COc1ccc(-c2[nH][nH]c(=O)c2NC(=O)c2ccc(C)cc2)cc1 | – | inactive: -1.96%
O=C1CCCCC1Nc1ccc([N+](=O)[O-])cc1 (stereo not drawn) | inconclusive: 11.2 µM [inhibitor, single point] | –
Cc1cccc(-c2nc(Nc3ccc(N4CCOCC4)cc3)c3ccccc3n2)c1 | inconclusive: 31.6 µM [inhibitor, single point] | –
Cc1ccc(NC(=O)c2nc(S(=O)(=O)Cc3cccc(C)c3)ncc2Cl)cc1 | inconclusive: 31.6 µM [inhibitor, single point] | –
Cc1cc([N+](=O)[O-])ccc1NC(=S)NC(=O)C(c1ccccc1)c1ccccc1 | inconclusive: 25.1 µM [inhibitor, single point] | –
CCn1c(Sc2ccc([N+](=O)[O-])cn2)nnc1-c1ccco1 | inconclusive: 11.2 µM [inhibitor, partial curve, poor fit] | –
Cc1ccc(OCC(=O)OCC(=O)N2c3ccccc3CC2C)cc1C (stereo not drawn) | – | inactive: 2.39%

Structure (SMILES) | Potency | activity change, negative = inhibition
COCC(=O)N(Cc1ccccc1)c1ccccn1 | – | inactive: -12.4%
CCN(CC)C(=O)c1sc(NC(=O)c2ccc3c(c2)OCO3)c(C(N)=O)c1C | – | inactive: -0.256%
O=C1C2=C(Nc3ccccc3SC2c2ccc(Cl)c(Cl)c2)c2ccccc21 (stereo not drawn) | inconclusive: 28.2 µM [inhibitor, single point] | –
CN(C)CCCN(C(=O)c1ccco1)c1nc2ccc(Br)cc2s1 | inconclusive: 22.4 µM [inhibitor, single point] | –
COc1cccc(N2C(=O)C(CC(=O)Nc3ccc(F)cc3)N(CCC3=CCCCC3)C2=O)c1 (stereo not drawn) | inconclusive: 10 µM [inhibitor, partial curve, poor fit] | –
O=C(/C=C\c1ccccc1OC(=O)c1ccccc1F)c1cc2ccccc2o1 | inconclusive: 11.2 µM [inhibitor, single point] | –
Cc1ccc(-n2nc3c(c2NC(=O)CC(C)C)CS(=O)(=O)C3)c(C)c1 | inconclusive: 3.16 µM [inhibitor, full curve, poor fit] | –
COc1cccc(-c2nnc(NC(=O)c3ccc(Cl)s3)o2)c1 | inconclusive: 10 µM [inhibitor, partial curve, poor fit] | –
COc1cccc(NC(=O)c2nc(S(C)(=O)=O)ncc2Cl)c1 | inconclusive: 10 µM [inhibitor, partial curve] | –
O=C(O)CCC(=O)N1N=C(c2ccccc2)CC1c1ccc2nccnc2c1 (stereo not drawn) | inconclusive: 28.2 µM [inhibitor, single point] | –
Cc1cc(S(=O)(=O)n2ccnc2C(C)C)cc([N+](=O)[O-])c1C | – | inactive: 20.3%
CCOC(=O)c1[nH]c2ccccc2c1NC(=O)c1ccccc1OC | inconclusive: 6.31 µM [inhibitor, partial curve, poor fit] | –
Cc1cccnc1NC(=S)NC(=O)c1cccs1 | inconclusive: 28.2 µM [inhibitor, single point] | –
COc1cc(CNCCc2ccccc2)cc(Br)c1OCC(=O)Nc1ccccc1C | inconclusive: 28.2 µM [inhibitor, single point] | –
O=[N+]([O-])/C=C/c1ccc2c(ccn2Cc2ccccc2)c1 | inconclusive: 8.91 µM [inhibitor, partial curve, poor fit] | –
COc1cc(OC)nc(Nc2nc(C(N)Cc3ccc(Cl)cc3)cs2)n1 (stereo not drawn) | inconclusive: 11.2 µM [inhibitor, partial curve, poor fit] | –
COCCCNc1ccn2nc(-c3cccc(Cl)c3)cc2n1 | – | inactive: -3.96%
CC(C)(C)[C@H]1C=C(C(=O)NCc2ccccc2)O[C@@H](OCCCCO)C1 | inconclusive: 28.2 µM [inhibitor, single point] | –
COc1ccc(C2c3ccc4ccccc4c3Oc3ncn(CCN4CCOCC4)c(=N)c32)cc1 (stereo not drawn) | inconclusive: 28.2 µM [inhibitor, single point] | –
COc1ccc(C2c3ccc4ccccc4c3Oc3ncn(CCCO)c(=N)c32)cc1OC (stereo not drawn) | inconclusive: 3.55 µM [inhibitor, full curve, poor fit] | –
CC(C)C1C(=O)N(Cc2cn(Cc3ccco3)nn2)CCS(=O)(=O)N1Cc1ccc(-c2ccc(Cl)cc2)cc1 (stereo not drawn) | inconclusive: 11.2 µM [inhibitor, single point] | –

Structure (SMILES) | Potency | activity change, negative = inhibition
COc1cc(NC(=O)c2cccc3c(-c4cccnc4)coc23)cc(OC)c1OC | inconclusive: 22.4 µM [inhibitor, single point] | –
N/C(=N\OC(=O)c1ccc2ccccc2c1)c1ccccc1Cl | inconclusive: 28.2 µM [inhibitor, single point] | –
N#C/C(=C\C=C\c1ccccc1[N+](=O)[O-])C(=O)NC1CCCCC1 | inconclusive: 8.91 µM [inhibitor, partial curve, poor fit] | –
Cc1nccn1CC(=O)N/N=C/c1cc(Br)cs1 | inconclusive: 28.2 µM [inhibitor, single point] | –
COc1ccc(C2c3c(-c4ccccc4O)n[nH]c3C(=O)N2CCc2ccccc2)cc1 (stereo not drawn) | inconclusive: 14.1 µM [inhibitor, single point] | –
COc1cc(OC)cc(-c2nc3ccccc3c(=O)n2OC(=O)c2ccccc2C)c1 | inconclusive: 11.2 µM [inhibitor, partial curve, poor fit] | –
COc1ccc2c(c1)c(=O)c(C(=O)c1ccc(C)cc1)cn2Cc1ccccc1F | – | inactive: -8.63%
O=C(O)CCc1nn2c3ccccc3nc2n(CCN2CCCCC2)c1=O | – | inactive: 50.3%
O=C(NCCc1ccccc1)C1Cc2c(-c3ccccc3)ccnc2O1 (stereo not drawn) | inconclusive: 28.2 µM [inhibitor, single point] | –
CCCCN(CC)CCNc1ncnc2onc(-c3ccc(Cl)cc3)c12 | – | inactive: -16.3%
O=C(/C=C/Sc1ncn[nH]1)c1ccc(Cl)cc1 | inconclusive: 22.4 µM [inhibitor, single point] | –
O=C1/C(=C\c2ccsc2)NC(=S)N1c1ccccc1 | inconclusive: 28.2 µM [inhibitor, single point] | –
COc1cc(NC(=O)c2oc3ccccc3c2C)ccc1NC(=O)c1ccco1 | inconclusive: 7.94 µM [inhibitor, partial curve, poor fit] | –
O=C(NC1CCN(Cc2ccccc2)CC1)c1ccc2c(c1)[nH]c(=O)n2Cc1ccc(F)cc1 | inconclusive: 5.01 µM [inhibitor, single point] | –
CCOc1ccc(Nc2ccc([N+](=O)[O-])c3nonc23)cc1 | inconclusive: 11.2 µM [inhibitor, single point] | –
O=C(Cn1c(=O)n(-c2ccc(F)cc2)c(=O)c2sccc21)Nc1cccc(C(F)(F)F)c1 | inconclusive: 6.31 µM [inhibitor, partial curve, poor fit] | –
COc1cc(OC)c(NC(=S)Nc2cc(Cl)cc(Cl)c2)cc1Cl | inconclusive: 10 µM [inhibitor, single point] | –
CCOC(=O)c1sc(N(Cc2ccccc2)C(=O)COC(=O)c2ccc(O)cc2)nc1C | inconclusive: 31.6 µM [inhibitor, partial curve, poor fit] | –
CC12CCC(O)CC1=CCC1C2CCC2(C)C3=NN=CC3CC12 (stereo not drawn) | inconclusive: 14.1 µM [inhibitor, partial curve, poor fit] | –
NC(=O)C1CCN(c2nc(-c3ccc(Br)cc3)cs2)CC1 | – | inactive: 3.65%
O=C(NNc1nc(-c2ccccc2)cs1)c1cccs1 | inconclusive: 22.4 µM [inhibitor, partial curve, poor fit] | –
